± gives the standard deviation of the averaged measurements. This is one part of the list.
test system: PfAP2-EXP AP2 domain (GST-tagged); assay: gcPBM binding intensity (ln(normalized median fluorescence intensity)); higher = stronger DNA binding
Procedure, shortened: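 DNA-binding domains from P. falciparum, fused to GST and produced in E. coli, were put on an Agilent 4 × 180k double-stranded probe array for 1 h in 1× PBS holding 1% milk, 0.2 mg/ml BSA, 0.5% salmon testes DNA and 0.03% Triton X-100. Probes were primer-extended, 36 bp long and drawn from intergenic genomic regions, with negative controls included. After Alexa488 anti-GST antibody detection and a 488 nm scan, binding intensity was set as the highest Masliner-normalised natural-log median intensity across replicate spots of either probe orientation.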

| Sequence | gcPBM binding intensity (ln) |
| --- | --- |
| TATGTGTATTTATTTGCATGTTGGTTGTATTTTTTC [TGCATGCA_site479] | 8.66 ± 0.35 |
| TAATAAAATAAAAATTGTACATTTTATATTTATCAA [XGTACX_site5134] | 8.01 ± 0.3 |
| AATGAAAAAAAAAAAAAAAAGAAGAAGCAAATGGTA [TGCATGCA_negctrl_site335] | 8.62 ± 0.7 |
| AGATTATTTGGACATGCATGTAAAAAAATACGTATA [TGCATGCA_site972] | 9.57 ± 0.3 |
| ATAAATAATTATATATGTACACATTATGAATGGATA [XGTACX_site8336] | 8.73 ± 0.35 |
| AAAAGTGATAATAAGAGTACATAAAAAATTTATTAT [XGTACX_site8037] | 8.63 ± 0.3 |
| TTATTTGTTTGTTGGATGCTTTTTTTTTTTTTTTTT [CACACA_negctrl_site1697] | 8.71 ± 0.2 |
| TACATATATATAATATGTACTTATAATATGTATTTA [XGTACX_site2162] | 8.09 ± 0.31 |
| ATTTCCCACTTGTGTGTGCGCATGTGTATATATTTA [GTGCAC_site9949] | 9.18 ± 0.45 |
| AAATAATTTATAAATAAATACATTGTTACTTTTTCT [GTGCAC_negctrl_site639] | 8.23 ± 0.29 |
| TATTCTATACTATATTGTACTATAATATAATATACT [XGTACX_site797] | 8.44 ± 0.31 |
| AGCCACTTAAAATACACACACACCAAAAAAAAAAAA [CACACA_site5497] | 8.31 ± 0.42 |
| TATTTTATTTATTGAAGTACATTATACAAAAATAAA [XGTACX_site4824] | 8.47 ± 0.27 |
| TATTCGAACAAAAATACATGCACATATGCATAATAA [TGCATGCA_site171] | 8.89 ± 0.099 |
| TTTTCCAGTAAATATTTTTTTATAATATTTATATAT [CACACA_negctrl_site387] | 8.3 ± 0.4 |
| AAATAAAATAAAATACGTACCTATTGTGCGTATTAA [XGTACX_site2912] | 8.11 ± 0.2 |
| TAATAAATGTTATTAGTGCATAATAGATAATATATT | 8.75 ± 0.13 |
| AATAATTTCCAAAAATGTACATATATTTACATATAT [XGTACX_site1790] | 8.4 ± 0.4 |
| ATTTTAACTCCCCTTAATCTATTGTATATATATATA [CACACA_negctrl_site208] | 9.95 ± 0.21 |

| Sequence | gcPBM binding intensity (ln) |
| --- | --- |
| ATTGTGGATATTCTTACACACAAATTTATTTATAAA [CACACA_site7267] | 8.13 ± 0.36 |
| TAAGAAATTGAGCGCACACATACATCTGTGGGATGG [CACACA_site1548] | 8.65 ± 0.69 |
| TTTTTTTCTTCTTTTCTCTTAAAAATATTGAATATT [CACACA_negctrl_site1762] | 8.49 ± 0.49 |
| ATGTAAATATTTTGTATGCACTTTGATGCATCTTTT | 8.64 ± 0.25 |
| TCAAGAGTTATATAAACACACATACATACAGACATA [CACACA_site6998] | 8.76 ± 0.58 |
| AAAAAAAAAAAAAAAAAAAAAAAAAAAAAAAAAAAG [CACACA_negctrl_site292] | 9.325 ± 0.035 |
| GTTTTCTAGTGGGGGTGTACATATTTATATTTAATA [XGTACX_site8378] | 10.9 ± 0.34 |
| ATATATATATAATAAGTGCAAAAAAAAGAAAAAAAT | 9.285 ± 0.078 |
| AGCAAAAAAAAAAAAAAAAAAAAAATAATAAAAAAT [TGCATGCA_negctrl_site202] | 8.19 ± 0.5 |
| CATATATTAATATGTACACACATTAATAAAAAAAAA [CACACA_site7504] | 8.32 ± 0.29 |
| TTTTTTTTTTTTGAGGTGCATATATCAGATCAATAT | 8.705 ± 0.035 |
| AGTATTCATAAAAATACACACATGGAAAAATAAAAT [CACACA_site1454] | 8.82 ± 0.59 |
| ATATATACATATATTACACACTTCTTATTCTAAGAA [CACACA_site3022] | 8.38 ± 0.45 |
| CTAGCAAATACATACACACACACACCGATACAGATA [CACACA_site5853] | 8.66 ± 0.66 |
| TATAATATAAGGATCACACACAAACACCCATATATA [CACACA_site4468] | 8.74 ± 0.52 |
| TCCATAAAAATGGATACACACACATAATATATATAT [CACACA_site9207] | 9.3 ± 0.28 |
| CATACATACATACATACACACATACCTATATTTATA [CACACA_site6769] | 9.2 ± 0.2 |
| TTAATAACAAAATAAACACACATATATAAATACCCA [CACACA_site4960] | 8.6 ± 0.54 |
| TTTGAAATAAGCAAATGTACATTATTATTAAATATA [XGTACX_site6158] | 8.38 ± 0.32 |

| Sequence | gcPBM binding intensity (ln) |
| --- | --- |
| TTGCCCATTTAATTAACACACAAATGTTTATATTCT [CACACA_site6488] | 8.79 ± 0.24 |
| TGTATGATAACTATAGTGCATTTGGTAATTTTTCCA | 8.52 ± 0.29 |
| TTCACATACAGAAACACACACATATATATAAATTAA [CACACA_site3705] | 8.6 ± 0.45 |
| TATTTCATGATACAATGTACATGTATATATGATACC [XGTACX_site5057] | 8.62 ± 0.34 |
| AATAATATATATTACACACGCATCGTTCATTTATTT [CACACA_site2391] | 8.9 ± 0.59 |
| AAATATAATATATGCACACATACATACAGATATATA [CACACA_site4235] | 8.4 ± 0.18 |
| ATAAATATAGGACACACACACATATTATATATATAT [CACACA_site5658] | 9.65 ± 0.12 |
| ATAATATAAATATGCACACAAATTATTACCCAAAAA [CACACA_site2524] | 8.56 ± 0.2 |
| GTTATATTCCTACAGAGTACATAAAAATGCACATCA [XGTACX_site1948] | 8.64 ± 0.13 |
| TATATAAAAAAACAAAGTACATGTTCTTAATCATTT [XGTACX_site8446] | 8.41 ± 0.37 |
| AAATGAACAAGTGGCACACACACATCATAACTAATT [CACACA_site5730] | 8.69 ± 0.37 |
| ATATATTTTTTCTTAACACACATATATAAAATAAAA [CACACA_site3500] | 8.34 ± 0.33 |
| CAAAATATATATACCACACACACATACCTCTATTTG [CACACA_site1853] | 8.69 ± 0.31 |
| CACGCGAACATACATACACACACATATATATATATG [CACACA_site7951] | 8.97 ± 0.42 |
| TATATATATATATACACACACACACCGATATATATA [CACACA_site8813] | 10.3 ± 0.41 |
| ACCCTCATATTATAGACACACACAAAAAAAATAAAA [CACACA_site7941] | 8.64 ± 0.58 |
| AGAAATGAAATATACACACATACATATATACATATA [CACACA_site4033] | 8.49 ± 0.27 |
| ATTAATAATGAGTTATGTACATACATATTTTAAGAT [XGTACX_site7543] | 8.77 ± 0.32 |
| TAAATACACCCTAGACGTACATAAAAATTTAGTATG [XGTACX_site2512] | 8.63 ± 0.45 |

— the supplement of paper PMC11417369
